# According to publication PMC4336329 (PLoS ONE, 2015):
# Out of some 310,000 compounds screened, about 14,000 (4.5%) showed an effect of 50% or more. Effects have a minus sign here. This is one part of the list.
# Molecular target: human ether-à-go-go-related gene (hERG) potassium channel (human, UniProt Q12809)
# Assay: primary screen, population patch clamp on CHO cells stably expressing hERG
# 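Also: peak tail current of the secondary pulse compared with the same well before compound.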
# human ether-à-go-go-related gene (hERG) potassium channel, sequence (Q12809 whole entry, looked up): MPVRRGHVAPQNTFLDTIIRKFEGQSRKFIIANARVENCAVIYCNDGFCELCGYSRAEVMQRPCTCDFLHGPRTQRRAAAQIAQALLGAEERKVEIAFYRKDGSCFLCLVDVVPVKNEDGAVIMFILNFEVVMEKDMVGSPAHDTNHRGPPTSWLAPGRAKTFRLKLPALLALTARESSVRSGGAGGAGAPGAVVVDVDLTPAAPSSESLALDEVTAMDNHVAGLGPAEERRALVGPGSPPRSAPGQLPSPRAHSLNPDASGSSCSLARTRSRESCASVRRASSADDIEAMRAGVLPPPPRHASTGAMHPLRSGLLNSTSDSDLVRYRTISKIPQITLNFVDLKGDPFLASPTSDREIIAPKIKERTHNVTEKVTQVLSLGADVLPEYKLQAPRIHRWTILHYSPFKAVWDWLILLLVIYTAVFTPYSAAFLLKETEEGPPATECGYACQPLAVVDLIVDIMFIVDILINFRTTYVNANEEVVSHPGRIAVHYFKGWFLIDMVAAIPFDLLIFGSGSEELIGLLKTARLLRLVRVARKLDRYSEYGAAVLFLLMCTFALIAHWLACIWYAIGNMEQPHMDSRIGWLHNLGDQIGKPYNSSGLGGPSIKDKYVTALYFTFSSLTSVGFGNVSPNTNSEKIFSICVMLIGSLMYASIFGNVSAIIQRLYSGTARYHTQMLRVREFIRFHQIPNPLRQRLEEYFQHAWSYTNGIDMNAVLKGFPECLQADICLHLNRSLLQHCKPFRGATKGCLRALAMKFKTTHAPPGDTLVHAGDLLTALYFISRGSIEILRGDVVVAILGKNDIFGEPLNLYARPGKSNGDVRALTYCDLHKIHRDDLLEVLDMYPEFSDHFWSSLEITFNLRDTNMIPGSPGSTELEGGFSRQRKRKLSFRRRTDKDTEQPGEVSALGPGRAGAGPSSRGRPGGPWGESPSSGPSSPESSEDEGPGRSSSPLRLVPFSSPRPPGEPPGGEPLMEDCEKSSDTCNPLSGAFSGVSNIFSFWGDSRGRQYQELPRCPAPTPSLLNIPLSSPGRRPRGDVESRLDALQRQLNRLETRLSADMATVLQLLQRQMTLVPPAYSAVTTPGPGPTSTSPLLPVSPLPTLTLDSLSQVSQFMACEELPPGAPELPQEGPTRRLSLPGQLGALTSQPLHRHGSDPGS
row,Structure (SMILES),"hERG current change (%, negative = inhibition) at 10uM [%]"
1,Cc1cc(C(F)(F)F)n2nc(-c3cnn(C)c3C(F)(F)F)c(Cl)c2n1,-10.3
2,CCOC(=O)c1ccc(NC(=O)CN2CCN(c3ccccc3)CC2)cc1,5.34
3,O=C1CSC(c2ccc(F)cc2)N1c1nc2ccccc2s1 (stereo not shown),-20.8
4,CC(C)c1ccccc1NC(=S)N1CCN(Cc2ccc3c(c2)OCO3)CC1,-13.5
5,CCc1cc(=O)oc2c(C)c(OCC(=O)NC3CC(C)(C)NC(C)(C)C3)ccc12,6.12
6,COc1ccc(C(=O)NNC(=O)CSc2nnc(COc3ccccc3)n2C)cc1,-4.17
7,C[C@@H](C(=O)NC1CCCC1)N1C(=O)N2CCc3c([nH]c4ccccc34)[C@@]2(C)C1=O,-27.5
8,Cc1cnc(C(=O)OCC(=O)NC(C)C)cn1,8.77
9,O=C(NC1CCCCC1)C12CC3CC(C1)CC(n1cncn1)(C3)C2,0.934
10,O=C(NC1CCCCC1)c1cc(-c2ccccc2Cl)on1,26.8
11,CC12CCC(=O)N1C(C(=O)Nc1ccc(SC(F)F)cc1)CS2 (stereo not shown),-57.6
12,Cc1cccc(C)c1OCCCCn1cnc2ccccc2c1=O,-10.1
13,COc1ccc(S(=O)(=O)NC(CC(=O)NCc2ccco2)c2ccco2)cc1 (stereo not shown),0.0401
14,COCC(=O)Nc1cc(OC)ccc1OC,10.8
15,O=C(CSc1nnc(CNC(=O)c2ccco2)o1)Nc1ccccc1,17.2
16,O=C(O)CCC(=O)NNC(=O)c1cccc(Br)c1,-0.791
17,CCn1c(SCC(=O)Nc2cccc(OC)c2)nc2ccccc2c1=O,-47.1
18,CC(=O)c1c(C(C)=O)c(C)n(-c2cccc([N+](=O)[O-])c2)c1C,0.766
19,CSCCn1c(C(C)(C)C)cc(C(=O)O)c1C,12.7
20,O=C(OCc1nc2ccccc2s1)c1ccccc1O,15.5
21,CCC(C)NC(=O)c1ccc(NC(=O)CC2SC(N3CCCC3)=NC2=O)cc1 (stereo not shown),0.357
22,Cc1ccc(-c2onc3ccc(C4OCCO4)cc23)cc1,4.32

row,Structure (SMILES),"hERG current change (%, negative = inhibition) at 10uM [%]"
1,COC(=O)C(C)NC(=S)N1CCN(c2c(F)cc3c(=O)c(C(=O)O)cn(C4CC4)c3c2OC)CC1C (stereo not shown),-21.5
2,Cc1ccc2c(c1)N(C(=O)CCC(=O)N1CCC(C(N)=O)CC1)CCO2,-3.46
3,OCC(O)C1OC(Nc2ccc(Br)cc2)C(O)C1O (stereo not shown),16.7
4,Cc1cc(C)n(CCC(=O)N/N=C/c2ccc(O)cc2O)n1,0.732
5,Cc1cccc(NC(=O)c2cc3c(=O)n4ccccc4nc3n(CC(C)C)c2=N)c1,-78
6,N#Cc1c(N)n(CCOC(=O)c2cccc([N+](=O)[O-])c2)c2nc3ccccc3nc12,8.35
7,CC(OC(=O)c1oc2ccccc2c1COc1ccccc1)C(N)=O (stereo not shown),11.1
8,C/C=C\C(=O)Nc1cccc(C2=NOC3(C2)C[C@@H](C(N)=O)N(C(=O)c2ccc(Cl)cc2)C3)c1 (stereo partly shown),-1.39
9,COCCCn1c(SCC(=O)N2CC(=O)Nc3ccccc32)nnc1-c1ccoc1C,11
10,O=C(Nc1ccc(Cl)cc1F)c1ccc(COc2c(F)c(F)c(F)c(F)c2F)o1,1.24
11,CC(NC(=O)C1CCN(S(=O)(=O)c2ccc(Br)s2)CC1)c1ccccc1 (stereo not shown),-0.752
12,Cc1c(C)n(Cc2ccccc2)c2ncnc(N)c12,-3.84
13,C=CCOc1ccc(C2C(C(=O)c3cccs3)=C(O)C(=O)N2c2nnc(C)s2)cc1 (stereo not shown),18.8
14,O=C(/C=C/c1ccc([N+](=O)[O-])cc1)c1cccs1,-23.4
15,O=C(CSc1nnc(NC(=O)C2CC(=O)N(c3ccc(F)cc3)C2)s1)NC1CCCC1 (stereo not shown),13.9
16,COc1ccccc1N/N=C/c1ccc2c(c1)OCO2,-8.93
17,CC(C)C(NC(=O)C12CC3CC(CC(C3)C1)C2)C(=O)NC1=NCCS1 (stereo not shown),-1.17
18,CCC(CC)c1nnc(NC(=O)CN2C(=O)c3ccccc3C2=O)s1,21.7
19,C[C@H](NC(=O)c1nc[nH]c1C(=O)N[C@@H](Cc1ccccc1)C(=O)OC(C)(C)C)C(=O)OCc1ccccc1,8.61
20,O=C(CN1C2CCC1CC(NC(=O)C1CC1)C2)NCc1ccccc1 (stereo not shown),6.98
21,Cc1cc(C)cc(NC(=O)CSc2nc3nc(C)cc(C)n3n2)c1,-50.2
